Assay results from the RNAGym collection of RNA variant scans (doi:10.7554/elife.90254).
Read counts are not given, so values of variants with three or more changes are uncertain.

B1: LINE1-mini (parent)
chain: GGCAGAGCUCAACACAGCGUGGCAAAGUGGCUGUGGCUAGACUGCC

Variants of: B1
Assay: self-cleavage, relative activity (ratio to wild type); higher = more cleavage; in vitro, sequencing; the parent is a self-cleaving ribozyme

Row | Variant | self-cleavage
1 | A39U G44A C46A | 0
2 | A24G G29A G35C | 0.09
3 | C18A G30A U38C | 0.44
4 | U20C U28A A41C | 0.01
5 | G2U C31G A41G | 0.03
6 | C10A U32A C42G | 0
7 | G7U A14U U20A A24C G33A C42A | 0.13
8 | G1A C8A U20C C23G | 0.43
9 | C10A C37A G44C | 0.02
10 | G7A A11U G44C | 0
11 | A11C A16G G17A A25U | 0.01
12 | G19U G30C U32C G33A | 0.02
13 | G1C G2C A6U G21C G36U | 0.01
14 | C23G G27U U28G G36A | 0.22
15 | U9G C10G C13G U32C C45A | 0.01
16 | U20G G21U A39U G44A | 0.06
17 | C3A A4G C18A U28A | 0.09
18 | G7A A12G C31G | 0.02
19 | A26G C37G C46A | 0.02
20 | G30U U34A C46A | 0.01
21 | A4G A24U C31A | 0.12
22 | G17A G30U U34C U38A | 0.04
23 | U9C G17A G33A | 0.02
24 | C31A G35C U38C A41C | 0.01

Row | Variant | self-cleavage
25 | A14U C18G G36A A39C C45G | 0
26 | A6C C15A G17C | 0.06
27 | C3A C8G C15G U34A | 0.13
28 | G7C G21A G27U | 0.09
29 | G1U C18U G21U A25C U43A | 0.01
30 | G2C C15A G21U | 0.03
31 | G1U G19C G29A G33A C42G U43C G44C | 0
32 | U34C C37U A41G | 0.01
33 | A14C C37G U38G C42G | 0.02
34 | G30A U34A G35A U38A | 0
35 | C8U A26C U32A | 0.31
36 | C13U G27A G40C | 0.19
37 | G1U A6C C45A | 0.09
38 | G2U G5U U9G A14U C45A | 0
39 | G5U A11G C23U | 0
40 | U9C C23G C45U | 0.03
41 | A6U A25U A26C G27A G36A | 0.11
42 | C23G G27A G30C | 2.7
43 | G1A C10A G19C | 0.04
44 | A26C G27U A39G | 0.05
45 | G5U C13G C37A G44A | 0.04
46 | C18U A26G G30C | 0.29
47 | G7C A39C U43G C45A | 0.07
48 | G5C A16G G30A C42A U43A | 0.02

Row | Variant | self-cleavage
49 | G1U A6C C10A A11C A16G | 0.01
50 | G7U G21C G27U | 0.02
51 | A12U C13A A41G | 0.04
52 | G2C G17A U28C A39C G40U U43G | 0.02
53 | G5U C13G A24C A25C G29U G35U | 0.01
54 | U9G C15A U28C C42A | 0.04
55 | G1U A16C C23G G29U | 0.09
56 | G5C G7A G33U | 0.37
57 | C3U G5C A12G | 0.03
58 | C8U A14G U20A U28G U34A A41U | 0.08
59 | G5C A14G G27A G30U C31U | 0.08
60 | C8U U20A G27U U28G G30C | 0.12
61 | G5C G7U G21U | 0.04
62 | G2A C15U C18U G27C A41G G44U | 0.03
63 | G5C U9G A14U C23U U32A G35U A39C G40U | 0.03
64 | C3G A6U G29U A39C U43A C45U | 0.01
65 | C13G C18G G22U A26G U43A | 0.02
66 | G17U G21U A39C | 0.03
67 | C10G G27C C42A | 0
68 | G2A G29C U34G G44C | 0.06
69 | C15G U34G C45A | 0.02
70 | G1U G7U A25C | 0
71 | C10A C18A A24C G40A | 0.02
72 | C13U G17C G35C | 0.15

Row | Variant | self-cleavage
73 | U20C G29A C42G | 0.02
74 | A4C G5U A6U G30C C46U | 0.05
75 | A4U G5U G21C U32G | 0.12
76 | C23A G27U U34C A41C | 0.01
77 | A4C G17U G35A | 0.06
78 | A24G G36C G40C | 0.05
79 | G5A A6G C15U G21C G40U A41G | 0.07
80 | A6G G7U C8A | 0.13
81 | A6U A12G G33C | 0.05
82 | G7C C10A A25U G36C | 0.02
83 | G2A G5A A12G G44C C45G | 0.18
84 | C10A C18U C23U U38C | 0.03
85 | G1A G2A C10G G35A G40A | 0.06
86 | C3A A6U C18A | 0.1
87 | A11C A25U G27A | 0.07
88 | A6U C10A G19A | 0.11
89 | C3U C13U C42U G44C C46A | 0.03
90 | A26U U34A G36A | 0.04
91 | G2U C3U C8U G21A G27U C42U C46U | 0.07
92 | A24G A26G C45G | 0.1
93 | G2C A24U A25G | 0.05
94 | C8G C15U U38A | 0.24
95 | C10U G19C U20C C31A U32A | 0.39
96 | A12G C18G C23U G27A | 0.01

Row | Variant | self-cleavage
97 | U28G C31A G35A C42G | 0.04
98 | A6U G22U U43G | 0.04
99 | G5C C23A U28C C31A | 0.07
100 | A6U A25G U28A U34C G44U | 0.43
101 | C8A C15G C45U | 0.23
102 | U9A G22U C23G C31U U38A | 0.02
103 | G5C C13U C42G | 0.11
104 | A6C C8A C10G G29A G30A | 0.02
105 | G1A G2A A4C A14U G22A | 0.32
106 | G5A C10U A14C | 0.03
107 | U9A A25G G27C U34C | 0.31
108 | G5U U9C G21U C37U A39G | 0.02
109 | G1A G19C C37A | 0.02
110 | C3A G7A A14U A16C U20A A25G A26C | 0.37
111 | A11C G27U U28C | 0.01
112 | U20G C31A C42U | 0.01
113 | G22U C23A C37A | 0.17
114 | A4U C37G A39U G40C C45U | 0.04
115 | G35A G36C A41U | 0.13
116 | C13A A14U A24U | 0.06
117 | A25U G35U G36C C45G | 0.04
118 | C31A G33C G36U | 0.08
119 | G2C U9G C13U G21A C23G U32G G35A | 0.13
120 | G7U C8G G27U U38C U43A | 0.04

Row | Variant | self-cleavage
121 | C3A G17A C18G A25G G35U | 0.23
122 | C13A G21U U38C G44C C45U C46U | 0.25
123 | C3U U9G G22U | 0.07
124 | C8A A24C G27U G29U | 0.33
125 | A6U C13U G29A A39C C45A | 0.07
126 | U9C G19A U28C G35U | 0.02
127 | U28G G29C C42G | 0.01
128 | G5A A6U C15A G36A | 0.07
129 | G2A U9C A16G A25G G27U | 0.02
130 | C10U C13G A25U G40C | 0.02
131 | G27U U28C U32G | 0.28
132 | U9A U28G C46A | 0.11
133 | C13U A16U U20A G40U | 0.02
134 | A12C C13A A24C A39G | 0.05
135 | A6G A11U G17U C18G U20A A26C G33C U34G | 0.01
136 | G1U G17U C23U G30U | 0.05
137 | C10A A12C A26C | 0.03
138 | A4C C10G G22U A39U U43G | 0
139 | A16U G17C G44C | 0.01
140 | A14C C18U G22A C42A | 0.05
141 | G1C C42U C46U | 0.02
142 | G5U C23U G40U A41G | 0.05
143 | A4U G7A G19C C23U U43C | 0.19
144 | C3G C8A A11U | 0.04

Row | Variant | self-cleavage
145 | C3U G17A G27U | 0.07
146 | G17U C18G G21U | 0.26
147 | G2A C8U C31A | 0.32
148 | U20A G33A U34G U38G | 0.03
149 | G33C C42A G44U | 0.02
150 | A14U G19C A24U U32G A39C | 0.03
151 | C13A G21U U28A | 0.09
152 | A4U C8U G17A U20A G22C | 0.15
153 | A12C C31A U38A | 0
154 | U9G A24G C37A C45G | 0.12
155 | G22C G27A A39C U43C | 0.08
156 | A6C G22A G30A C42G | 0.03
157 | G5U C8G A11U G33A | 0.03
158 | A6U C10A G36A | 0.01
159 | U32C G33A C42U C46A | 0.06
160 | G2A C13U C15U C18A G19U U20G C23U | 0.16
161 | C10A C37G G40U U43A | 0.01
162 | C3G U28G G33A G35U U38C G40U C42U | 0.04
163 | G5A C18U A25U | 0.29
164 | A6G A16C G27U C42A | 0.06
165 | C13U A16C C45U | 0.03
166 | U20C G30U A41U | 0.3
167 | C10U G35U C45A C46U | 0.02
